# The other results are listed elsewhere or left out. These are further read-outs of the screen, such as a control signal, another cell line or another target. No call is given for them. Compounds called inactive in the main read-out are mostly missing here. Potencies come from curve fits of mixed quality, noted in brackets.
# Assay: qHTS Assay for Lipid Storage Modulators (AID 1519)
# Conditions: Drosophila S3 cells, BODIPY lipid droplet/cell ratio, laser cytometry; measured here: lipid (BODIPY) channel AC50; cells loaded with oleic acid
# Summary of the method: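 Cells seeded at 5,000 per well were treated with compounds over a concentration series and loaded with oleic acid (400 uM, as added). Lipid droplet fluorescence (488 nm excitation, 500-530 nm channel) was read by laser-scanning cytometry and normalized to 20 uM Triacsin C.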
# Tags tell the direction and shape of the fitted curve.
row,Compound,AC50
1,COCCn1c(=O)cnc2cnc(Oc3cccc(Cl)c3)nc21,"11.2 µM [rising, partial curve, poor fit]"
2,COC(=O)C1C(O)CC[C@@H]2CN3CCc4c([nH]c5ccccc45)C3C[C@@H]12 (some centres undefined),"39.8 µM [rising, single point]"
3,COc1ccc2[nH]cc(CCNc3ccnc(-c4ccccc4C(F)(F)F)n3)c2c1,"0.794 µM [rising, full curve, poor fit]"
4,CCCCC1C(=O)N(c2ccccc2)N(c2ccc(O)cc2)C1=O (centres undefined),"22.4 µM [falling, partial curve]"
5,NS(=O)(=O)c1cc2c(cc1Cl)NC(C(Cl)Cl)NS2(=O)=O (centres undefined),"5.01 µM [rising, full curve, poor fit]"
6,COCC(=O)N1CCC2(CCCN(c3ccccn3)C2)CC1,"3.16 µM [rising, partial curve]"
7,CC1CC[C@@]23CCC4(C)[C@@]5(C)CCC6C(C)(C)C(=O)CC[C@@]6(C)C5C=C[C@@]4(OC2=O)C3C1C (some centres undefined),"35.5 µM [rising, single point]"
8,COCCNc1ccnc(-c2c(C)noc2C)n1,"20 µM [rising, partial curve]"
9,N#Cc1cccc(NC(=O)N2CC3(CCN(C(=O)c4cnccn4)CC3)C2)c1,"3.16 µM [rising, single point]"

# Same assay, conditions: Drosophila S3 cells, BODIPY lipid droplet/cell ratio, laser cytometry; measured here: lipid channel max response; cells loaded with oleic acid
row,Compound,max response [%]
1,NCC1O[C@H](O[C@@H]2C(O)[C@H](O[C@H]3OC(CO)C(O)C(N)C3O)[C@@H](N)C[C@H]2N)[C@@H](N)CC1O (some centres undefined),38.8
2,COc1ccc(Oc2ncc3nc(C)c(=O)n(CCC#N)c3n2)cc1,36.4
3,COc1ccc(NC(=O)N2CCCC3(CCN(C(=O)c4cccn4C)CC3)C2)cc1,31.4
4,CS(=O)(=O)N1CCC2(CC1)CN(c1ccc(-c3ccccc3)cc1)C2,6.21
5,COc1cc(S(C)=O)ccc1-c1nc2ncccc2[nH]1 (centres undefined),42.5
6,Cc1nc2cnc(Oc3cccc(Cl)c3)nc2n(C2CC2)c1=O,29.9
7,N#CCCn1c(=O)c(-c2ccc(Cl)cc2)nc2cnc(N3CCNCC3)nc21,29.4
8,C[C@H]1[C@H]2CC[C@H]3C4CC=C5C[C@@H](N(C)C)CC[C@]5(C)C4CC[C@]23CN1C (some centres undefined),34.8
9,Cc1cccc(CNc2ncncc2-c2cccc(NS(C)(=O)=O)c2)c1,31
10,O=C(c1cnccn1)N1CCC2(CCCN(Cc3nccs3)C2)CC1,33.9
11,FC(F)(F)c1ccccc1-c1cncnc1-n1ccnc1,27.6
12,COc1ccc(C(=O)N2CCC3(CCCN(C)C3)CC2)cc1,31
13,O=c1c(-c2ccc(O)cc2)coc2c(C3OC(CO)C(O)C(O)C3O)c(O)ccc12 (centres undefined),31.9
14,O=c1c(CCc2ccccc2)nc2cncnc2n1Cc1ccccc1Cl,34.6
15,COc1ccccc1-c1nc(NC2CC2)c2ccccc2n1,17.7
16,Cn1cc(-c2nc3cnc(N4CCOCC4)nc3n(CCC#N)c2=O)c2ccccc21,31.2
17,O=C(Nc1cccc(F)c1)N1CCCC2(CCN(C(=O)c3ccco3)CC2)C1,4.06
18,CCCCOc1ccc(C(=O)CCN2CCCCC2)cc1,-32.7
19,COc1cc(O)c(C(=O)/C=C/c2ccc(O)c(OC)c2)c(OC)c1,30.9
20,COc1ccc(NC(=O)N2CC3(CCN(C(=O)c4ccncc4)CC3)C2)cc1,27.3

row,Compound,max response [%]
1,CC(=O)OC1CC2C(C)(C)C(=O)CC[C@]2(C)C2CC[C@]3(C)C(=CC(=O)OC3c3ccoc3)[C@]12C (some centres undefined),35.5
2,COC(=O)N1CCC2(CC1)CCN(c1cccc(-c3ccccc3)c1)CC2,21.5
3,COc1ccc(Oc2ncc3nc(-c4cccs4)c(=O)n(Cc4cccc(OC)c4)c3n2)cc1,-2.67
4,O=C(O)c1cc2cc(Cc3cccnc3)ccc2o1,64.4
5,CC(=O)OCC1=C(C(=O)O)N2C(=O)C(NC(=O)CSc3ccncc3)[C@@H]2SC1 (some centres undefined),32.5
6,COCCn1c(=O)c(-c2ccccc2)nc2cnc(Oc3ccccc3)nc21,5.24
7,COCCn1c(=O)c(-c2cc(F)cc(F)c2)nc2cnc(N(C)C)nc21,24.7
8,c1cncc(-c2ccc3ncnc(NC4CCNCC4)c3c2)c1,30.2
9,N#CCCn1c(=O)c(-c2ccc(F)cc2)nc2cnc(N3CCNCC3)nc21,31.5
10,CCc1ccc(CCOc2ccc(CC3SC(=O)NC3=O)cc2)nc1 (centres undefined),38.9
11,CC(=O)OC1CCC2(C)C(=CCC3C2CCC2(C)C3C[C@@H]3O[C@]32C(C)=O)C1 (some centres undefined),30.1
12,COCCn1c(=O)cnc2cnc(Oc3cccc(Cl)c3)nc21,30
13,COC(=O)C1C(O)CC[C@@H]2CN3CCc4c([nH]c5ccccc45)C3C[C@@H]12 (some centres undefined),34
14,COc1ccc2[nH]cc(CCNc3ccnc(-c4ccccc4C(F)(F)F)n3)c2c1,3.16
15,CCCCC1C(=O)N(c2ccccc2)N(c2ccc(O)cc2)C1=O (centres undefined),-88.2
16,NS(=O)(=O)c1cc2c(cc1Cl)NC(C(Cl)Cl)NS2(=O)=O (centres undefined),31.9
17,COCC(=O)N1CCC2(CCCN(c3ccccn3)C2)CC1,1.51
18,CC1CC[C@@]23CCC4(C)[C@@]5(C)CCC6C(C)(C)C(=O)CC[C@@]6(C)C5C=C[C@@]4(OC2=O)C3C1C (some centres undefined),33.7
19,COCCNc1ccnc(-c2c(C)noc2C)n1,31.4
20,N#Cc1cccc(NC(=O)N2CC3(CCN(C(=O)c4cnccn4)CC3)C2)c1,37.2

# Reference: PubChem BioAssay (NCATS)
